Reference: the supplement of paper PMC4967469
By IC50 is meant the dose at which the fit gives 50% viability; fits outside the tested doses are given as limits. For AUC the same curve is integrated over the 256-fold range of doses and scaled to a fraction; values near 1 show little effect. For some assays here: A top dose marked as inferred was calculated from the reported fits. For some assays here: Drugs with an entry number were screened twice under separate entries, and the two screens often disagree.

What was measured:
Assay in all cases: Viability of human cancer cell lines after 72 h of drug (GDSC screen)
[1] = compound: Cc1ccc(NC(=O)c2ccc(CN3CCN(C)CC3)cc2)cc1Nc1nc(-c2cccnc2)cs1 [Masitinib]; conditions: top dose 20 µM
Method: (§1)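 Human cancer cell lines in 384-well plates, medium with 10% serum, drug for 72 h over a 256-fold dose range (nine 2-fold or five 4-fold steps up to the top dose). Adherent lines were fixed and stained with the nucleic acid dye Syto60, suspension lines read with resazurin; signal relative to control wells, capped at 0 and 100%. One two-parameter sigmoid per drug and line, fitted in a mixed model over all curves with the slope shared within a line.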

[2] = compound: CN(NC(=O)CC(=O)NN(C)C(=S)c1ccccc1)C(=S)c1ccccc1 [Elesclomol]; conditions: top dose 0.2 µM; top dose inferred
Method: as §1

[3] = compound: O=C(Nc1cccc(Nc2ncc(Br)c(NCCc3cnc[nH]3)n2)c1)N1CCCC1 [BX-912]; conditions: top dose 10.24 µM; top dose inferred
Method: as §1

[4] = compound: COc1cc(N2CCC(C(N)=O)CC2)ccc1Nc1nc(N)c(Cl)c(Nc2ccccc2S(=O)(=O)C(C)C)n1 [HG-5-88-01]; conditions: top dose 10 µM; top dose inferred
Method: as §1

[5] = compound: CC/C(=C(\c1ccccc1)c1ccc(OCCN(C)C)cc1)c1ccccc1 [Tamoxifen]; conditions: top dose 5 µM
Method: as §1

[6] = compound: O=C(Nc1ccc(OC(F)(F)F)cc1)c1sccc1NCc1ccnc2ccccc12 [OSI-930]; conditions: top dose 10.24 µM
Method: as §1

[7] = compound: Cc1c(N)nc([C@H](CC(N)=O)NC[C@H](N)C(N)=O)nc1C(=O)N[C@H](C(=O)N[C@H](C)[C@@H](O)[C@H](C)C(=O)N[C@H](C(=O)NCCc1nc(-c2nc(C(=O)NCCC[S+](C)C)cs2)cs1)[C@@H](C)O)[C@@H](OC1OC(CO)C(O)C(O)C1OC1OC(CO)C(O)C(OC(N)=O)C1O)c1cnc[nH]1 [Bleomycin]
Method: as §1

[8] = compound: CCCC(=O)OCc1ccc(OC(=O)/C=C(C)/C=C/C=C(C)/C=C/C2=C(C)CCCC2(C)C)cc1 [VNLG/124]; conditions: top dose 5.12 µM; top dose inferred
Method: as §1

[9] = compound: O=S(=O)(O)c1ccc2cc(N=Nc3cc(S(=O)(=O)O)c4cccnc4c3O)ccc2c1 [NSC-87877]; conditions: top dose 16 µM; top dose inferred
Method: as §1

[10] = compound: O=C(/C=C/c1ccc(CN(CCO)CCc2c[nH]c3ccccc23)cc1)NO [LAQ824]; conditions: top dose 1.024 µM; top dose inferred
Method: as §1

[11] = top dose 50 µM, screen: GDSC drug entry 1378, top dose inferred
[12] = top dose 64 µM, screen: GDSC drug entry 190

## RCC-FG2 (kidney, adherent)
[1]
  AUC: 0.813
  IC50: 14.8 µM
[2]
  AUC: 0.462
  IC50: 0.00958 µM
[3]
  AUC: 0.943
  IC50: > 10.2 µM
[4]
  AUC: 0.96
  IC50: > 10 µM
[5]
  AUC: 0.964
  IC50: > 5 µM
[6]
  AUC: 0.978
  IC50: > 10.2 µM
[7]; [11]
  AUC: 0.831
  IC50: 44.6 µM
[8]
  AUC: 0.977
  IC50: > 5.12 µM

## RCC-JF (kidney, adherent)
[1]
  AUC: 0.777
  IC50: 9.09 µM
[2]
  AUC: 0.27
  IC50: 0.00253 µM
[3]
  AUC: 0.83
  IC50: 7.56 µM
[4]
  AUC: 0.975
  IC50: > 10 µM
[5]
  AUC: 0.981
  IC50: > 5 µM
[6]
  AUC: 0.968
  IC50: > 10.2 µM
[7]; [11]
  AUC: 0.596
  IC50: 5.94 µM
[8]
  AUC: 0.983
  IC50: > 5.12 µM

## RCC-JW (kidney, adherent)
[1]
  AUC: 0.849
  IC50: 15.6 µM
[2]
  AUC: 0.462
  IC50: 0.0098 µM
[3]
  AUC: 0.83
  IC50: 6.69 µM
[4]
  AUC: 0.979
  IC50: > 10 µM
[5]
  AUC: 0.978
  IC50: > 5 µM
[6]
  AUC: 0.955
  IC50: > 10.2 µM
[7]; [11]
  AUC: 0.245
  IC50: 0.563 µM
[8]
  AUC: 0.985
  IC50: > 5.12 µM

## RL95-2 (endometrium, adherent)
[1]
  AUC: 0.976
  IC50: > 20 µM
[2]
  AUC: 0.699
  IC50: 0.045 µM
[3]
  AUC: 0.987
  IC50: > 10.2 µM
[4]
  AUC: 0.966
  IC50: > 10 µM
[9]
  AUC: 0.981
  IC50: > 16 µM
[5]
  AUC: 0.986
  IC50: > 5 µM
[6]
  AUC: 0.972
  IC50: > 10.2 µM
[7]; [11]
  AUC: 0.694
  IC50: 10.9 µM
[8]
  AUC: 0.94
  IC50: > 5.12 µM

## SCC90 (head and neck, adherent)
[2]
  AUC: 0.557
  IC50: 0.019 µM
[3]
  AUC: 0.714
  IC50: 3.39 µM
[4]
  AUC: 0.927
  IC50: > 10 µM
[9]
  AUC: 0.981
  IC50: > 16 µM
[5]
  AUC: 0.975
  IC50: > 5 µM
[7]; [11]
  AUC: 0.905
  IC50: > 50 µM
[7]; [12]
  AUC: 0.779
  IC50: 38.5 µM
[10]
  AUC: 0.607
  IC50: 0.143 µM

## SK-GT-4 (oesophagus, adherent)
[1]
  AUC: 0.876
  IC50: > 20 µM
[2]
  AUC: 0.25
  IC50: 0.00197 µM
[3]
  AUC: 0.919
  IC50: > 10.2 µM
[4]
  AUC: 0.947
  IC50: > 10 µM
[5]
  AUC: 0.969
  IC50: > 5 µM
[6]
  AUC: 0.982
  IC50: > 10.2 µM
[7]; [11]
  AUC: 0.826
  IC50: 40.7 µM
[8]
  AUC: 0.982
  IC50: > 5.12 µM

## SK-MEL-5 (melanoma, adherent)
[1]
  AUC: 0.896
  IC50: > 20 µM
[2]
  AUC: 0.665
  IC50: 0.0401 µM
[3]
  AUC: 0.962
  IC50: > 10.2 µM
[4]
  AUC: 0.94
  IC50: > 10 µM
[5]
  AUC: 0.98
  IC50: > 5 µM
[6]
  AUC: 0.98
  IC50: > 10.2 µM
[7]; [11]
  AUC: 0.771
  IC50: 23.6 µM
[8]
  AUC: 0.98
  IC50: > 5.12 µM

## SK-MG-1 (glioma, adherent)
[1]
  AUC: 0.816
  IC50: 11.3 µM
[2]
  AUC: 0.41
  IC50: 0.00708 µM
[3]
  AUC: 0.897
  IC50: > 10.2 µM
[4]
  AUC: 0.945
  IC50: > 10 µM
[5]
  AUC: 0.986
  IC50: > 5 µM
[6]
  AUC: 0.98
  IC50: > 10.2 µM
[7]; [11]
  AUC: 0.293
  IC50: 0.807 µM
[8]
  AUC: 0.985
  IC50: > 5.12 µM

## SNU-81 (large intestine, adherent)
[1]
  AUC: 0.956
  IC50: > 20 µM
[2]
  AUC: 0.908
  IC50: > 0.2 µM
[3]
  AUC: 0.965
  IC50: > 10.2 µM
[4]
  AUC: 0.887
  IC50: > 10 µM
[5]
  AUC: 0.98
  IC50: > 5 µM
[6]
  AUC: 0.98
  IC50: > 10.2 µM
[7]; [11]
  AUC: 0.68
  IC50: 11.9 µM
[8]
  AUC: 0.982
  IC50: > 5.12 µM

## SNU-407 (large intestine, adherent)
[1]
  AUC: 0.843
  IC50: 17.8 µM
[2]
  AUC: 0.616
  IC50: 0.0277 µM
[3]
  AUC: 0.916
  IC50: > 10.2 µM
[4]
  AUC: 0.898
  IC50: > 10 µM
[5]
  AUC: 0.981
  IC50: > 5 µM
[6]
  AUC: 0.958
  IC50: > 10.2 µM
[7]; [11]
  AUC: 0.592
  IC50: 5.83 µM
[8]
  AUC: 0.976
  IC50: > 5.12 µM

## SNU-C5 (large intestine, adherent)
[1]
  AUC: 0.969
  IC50: > 20 µM
[2]
  AUC: 0.705
  IC50: 0.0506 µM
[3]
  AUC: 0.94
  IC50: > 10.2 µM
[4]
  AUC: 0.908
  IC50: > 10 µM
[5]
  AUC: 0.984
  IC50: > 5 µM
[6]
  AUC: 0.98
  IC50: > 10.2 µM
[7]; [11]
  AUC: 0.723
  IC50: 14.4 µM
[8]
  AUC: 0.986
  IC50: > 5.12 µM

## STS-0421 (soft tissue, adherent)
[2]
  AUC: 0.846
  IC50: 0.184 µM
[3]
  AUC: 0.539
  IC50: 0.831 µM
[4]
  AUC: 0.895
  IC50: > 10 µM
[9]
  AUC: 0.983
  IC50: > 16 µM
[5]
  AUC: 0.969
  IC50: > 5 µM
[7]; [11]
  AUC: 0.444
  IC50: 2.15 µM
[7]; [12]
  AUC: 0.106
  IC50: < 0.25 µM
[10]
  AUC: 0.412
  IC50: 0.0353 µM

## TE-4 (oesophagus, adherent)
[1]
  AUC: 0.888
  IC50: > 20 µM
[2]
  AUC: 0.522
  IC50: 0.0143 µM
[3]
  AUC: 0.967
  IC50: > 10.2 µM
[4]
  AUC: 0.939
  IC50: > 10 µM
[5]
  AUC: 0.95
  IC50: > 5 µM
[6]
  AUC: 0.97
  IC50: > 10.2 µM
[7]; [11]
  AUC: 0.664
  IC50: 8.93 µM
[8]
  AUC: 0.981
  IC50: > 5.12 µM

## UWB1.289 (ovary, adherent)
[1]
  AUC: 0.972
  IC50: > 20 µM
[2]
  AUC: 0.729
  IC50: 0.0794 µM
[3]
  AUC: 0.926
  IC50: > 10.2 µM
[4]
  AUC: 0.942
  IC50: > 10 µM
[5]
  AUC: 0.977
  IC50: > 5 µM
[6]
  AUC: 0.965
  IC50: > 10.2 µM
[7]; [11]
  AUC: 0.713
  IC50: 17.1 µM
[8]
  AUC: 0.98
  IC50: > 5.12 µM

## YH-13 (glioma, adherent)
[1]
  AUC: 0.891
  IC50: > 20 µM
[2]
  AUC: 0.613
  IC50: 0.026 µM
[3]
  AUC: 0.784
  IC50: 4.63 µM
[4]
  AUC: 0.905
  IC50: > 10 µM
[5]
  AUC: 0.978
  IC50: > 5 µM
[6]
  AUC: 0.986
  IC50: > 10.2 µM
[7]; [11]
  AUC: 0.483
  IC50: 2.8 µM
[8]
  AUC: 0.974
  IC50: > 5.12 µM
